Results are given in words; binding and its absence hold for the method and conditions named. Binding seen in cells or lysates may run through a third protein. Some binding calls cover weakened binding; strength is not graded here. Sequences can lack the tags named with a protein.
Biological target: FLAG-CLASPIN (human) (UniProt Q9HAW4)
Assay: co-IP; HEK293T cells co-transfected with tagged proteins, lysed in NETN buffer, anti-FLAG M2 beads 4 h, 4°C, immunoblot; in some panels cells mock-treated or treated with 2 mM HU for 1 h, or transfected with siNC or siTRIM21

Protein sequences, listed by entry. Tags and fused reporters are not part of them.
UniProt Q9HAW4: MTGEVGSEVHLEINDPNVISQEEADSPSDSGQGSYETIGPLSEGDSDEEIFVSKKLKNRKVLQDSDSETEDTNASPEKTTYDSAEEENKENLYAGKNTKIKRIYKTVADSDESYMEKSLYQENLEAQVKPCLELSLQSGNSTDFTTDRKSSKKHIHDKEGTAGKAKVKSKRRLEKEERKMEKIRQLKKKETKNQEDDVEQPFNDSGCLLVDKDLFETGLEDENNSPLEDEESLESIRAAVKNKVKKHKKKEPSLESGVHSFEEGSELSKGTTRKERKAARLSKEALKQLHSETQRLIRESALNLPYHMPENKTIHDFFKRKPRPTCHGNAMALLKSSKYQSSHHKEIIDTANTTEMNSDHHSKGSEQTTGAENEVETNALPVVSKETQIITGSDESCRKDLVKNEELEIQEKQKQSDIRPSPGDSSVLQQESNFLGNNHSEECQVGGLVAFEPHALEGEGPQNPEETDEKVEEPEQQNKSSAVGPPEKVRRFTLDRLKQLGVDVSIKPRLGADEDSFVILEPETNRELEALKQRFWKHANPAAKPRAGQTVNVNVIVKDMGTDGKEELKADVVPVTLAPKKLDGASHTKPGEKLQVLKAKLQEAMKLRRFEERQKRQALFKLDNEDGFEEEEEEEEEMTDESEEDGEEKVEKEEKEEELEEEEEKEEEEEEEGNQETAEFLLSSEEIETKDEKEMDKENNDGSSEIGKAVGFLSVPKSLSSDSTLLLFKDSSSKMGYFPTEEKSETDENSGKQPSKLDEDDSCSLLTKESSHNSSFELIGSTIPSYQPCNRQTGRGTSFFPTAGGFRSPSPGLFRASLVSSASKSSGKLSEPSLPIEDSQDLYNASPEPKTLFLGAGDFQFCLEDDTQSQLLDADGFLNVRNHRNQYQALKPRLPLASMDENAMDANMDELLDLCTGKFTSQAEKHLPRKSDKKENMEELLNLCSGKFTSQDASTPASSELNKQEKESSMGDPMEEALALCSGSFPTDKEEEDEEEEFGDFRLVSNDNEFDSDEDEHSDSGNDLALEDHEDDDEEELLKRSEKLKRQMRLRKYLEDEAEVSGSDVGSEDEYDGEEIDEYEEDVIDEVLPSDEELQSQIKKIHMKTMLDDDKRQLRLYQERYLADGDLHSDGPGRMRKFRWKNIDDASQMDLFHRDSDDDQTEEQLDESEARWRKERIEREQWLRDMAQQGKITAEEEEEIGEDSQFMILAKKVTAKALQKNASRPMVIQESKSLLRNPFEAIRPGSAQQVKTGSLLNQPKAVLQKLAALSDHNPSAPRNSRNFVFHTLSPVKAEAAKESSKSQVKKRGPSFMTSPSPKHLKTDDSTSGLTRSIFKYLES

B1: HA-TIPIN (protein, UniProt Q9BVW5 1-301)
chain: MLEPQENGVIDLPDYEHVEDETFPPFPPPASPERQDGEGTEPDEESGNGAPVRVPPKRTVKRNIPKLDAQRLISERGLPALRHVFDKAKFKGKGHEAEDLKMLIRHMEHWAHRLFPKLQFEDFIDRVEYLGSKKEVQTCLKRIRLDLPILHEDFVSNNDEVAENNEHDVTSTELDPFLTNLSESEMFASELSRSLTEEQQQRIERNKQLALERRQAKLLSNSQTLGNDMLMNTPRAHTVEEVNTDEDQKEESNGLNEDILDNPCNDAIANTLNEEETLLDQSFKNVQQQLDATSRNITEAR
For B1, the binding was “binds”.

Reference: PMC8860585
